Assay results reported in PubChem BioAssay AID743279 (National Center for Advancing Translational Sciences (NCATS), 2014).
In all, about 360,000 compounds went through this assay and about 17,000 (4.7%) were called active. The shares of active, inactive and inconclusive entries below differ from those in the screen. No stated cut-off is given here; in the data, active means activity change below about -50%; inconclusive means mostly about -30% to -49%; inactive means weaker than that.

assay: qHTS for Inhibitors of Inflammasome Signaling: IL-1-beta AlphaLISA Primary Screen; conditions: THP-1 LPS/ATP IL-1B secretion, 16 h; at 57.5 µM, stronger effect = lower value
In short: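 Secreted IL-1B measured by AlphaLISA bead assay after 16 h compound exposure of THP-1 cells; compounds (final up to 57.5 uM) added 1 h before LPS (250 ng/mL) and ATP (1.25 mM) stimulation; lower signal means less secretion.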
On the % scale 0 is the no-effect control and ±100 the full control effect.

Row | Structure (SMILES) | activity change
1 | COc1ccc(Nc2oc(COc3ccc(Cl)cc3)nc2C#N)cc1 | inconclusive: -35.8%
2 | COc1cccc(C(=O)Nc2nnc(SCC(=O)NC3CCCC3)s2)c1 | inactive: 9.46%
3 | COc1ccc2nc(NC(=O)c3cccc(S(=O)(=O)N4CCOCC4)c3)sc2c1 | inconclusive: -43.5%
4 | O=C(COc1ccccc1[N+](=O)[O-])N1CCC(Cc2ccccc2)CC1 | inconclusive: -34.9%
5 | CC1CCCN(C(=O)C2CCN(S(=O)(=O)c3ccc4c(c3)CC(C)N4C(=O)C3CC3)CC2)C1 (stereo not drawn) | inactive: -13.1%
6 | COc1ccccc1N1CCN(C(=O)Oc2ccccc2)CC1 | inconclusive: -35.8%
7 | CCOC(=O)c1ccc(-c2ccc(N3C(c4cccc(OC)c4)=Cc4ccc(F)cc4C3CC(C)=O)cc2)cc1F (stereo not drawn) | inactive: 30.8%
8 | Cc1ccccc1NC(=O)C1Cc2ccccc2CN1C(=O)c1ccco1 (stereo not drawn) | inconclusive: -43.7%
9 | COC(=O)[C@@]1(Cc2ccc(OC)cc2)[C@H]2c3cc(C(=O)N4CCCC4)n(Cc4ccccc4)c3C[C@H]2CN1C(=O)c1ccccc1 | active: -65.6%
10 | COc1ccc(-c2nn(-c3ccccc3)cc2C(=O)Nc2cccc(C(=O)O)c2)cc1[N+](=O)[O-] | inactive: 28.6%
11 | CSc1ccccc1NC(=O)CN(C)Cc1ccc(Br)cc1 | inconclusive: -32.7%
12 | Oc1ccccc1CN(Cc1ccco1)CC(O)COCc1ccc(Cl)cc1 (stereo not drawn) | active: -99.3%
13 | CC(C)(C)OC(=O)NCCCC[C@H](NC(=O)c1[nH]cnc1C(=O)Nc1ccc(Cl)cc1)C(=O)OC(C)(C)C | active: -58.4%
14 | Fc1ccc(-c2nnc(SCc3ncc(-c4ccccc4)o3)n2CC2CCCO2)cc1 (stereo not drawn) | inconclusive: -34.6%
15 | O=C(Nc1cccc(-n2cnnn2)c1)c1cc(Cl)nc(Cl)c1 | inconclusive: -32.1%
16 | Cc1cc(Cl)c2oc(C(=O)N(C)C3CCOC3)c(C)c2c1 (stereo not drawn) | inconclusive: -43.2%
17 | CC(C)CNC(=S)N(CCN(C)C)Cc1cc2cc3c(cc2[nH]c1=O)OCO3 | inconclusive: -44.4%
18 | O=C1S/C(=C\c2ccc(Cl)cc2)C(=O)N1CCn1cnnn1 | active: -61.5%
19 | CN1CCN(C(c2ccc(F)cc2)c2nnnn2Cc2cccs2)CC1 (stereo not drawn) | inconclusive: -33.8%
20 | CCC(Oc1ccccc1)C(=O)N(Cc1ccccc1)c1ccccn1 (stereo not drawn) | inactive: 0%
21 | COC(=O)[C@]12CCCCC=C1N(CCc1ccc(OC)c(OC)c1)C(=O)[C@H](CC(=O)NCC13CC4CC(CC(C4)C1)C3)C2 | inconclusive: -43.5%

Row | Structure (SMILES) | activity change
22 | CC1(C)CC(NC(=S)NC(=O)c2cc(Br)ccc2Cl)CC(C)(C)N1 | inconclusive: -47.1%
23 | c1ccc(CCn2nnnc2C(c2cccnc2)N2CCN(c3nc4ccccc4s3)CC2)cc1 (stereo not drawn) | active: -64.4%
24 | C=CCN(Cc1cccs1)C(=O)COc1ccc2c(c1)OCO2 | inconclusive: -48.3%
25 | O=C(CSc1nc2ccccc2c(=O)n1-c1ccc(OC(F)F)cc1)NC1CC1 | inactive: -1.27%
26 | CC[C@@H](C)[C@@H]1CN([C@@H](CN2CCC[C@H]2CN2C(N)=NC[C@@H]2Cc2ccccc2)C(C)C)C(=N)N1CCCC1CCCC1 | inconclusive: -42.8%
27 | CC1(C(=O)Nc2ccc3c(c2)OCCO3)CCN1C(=O)c1cccc(F)c1 (stereo not drawn) | inactive: -6.91%
28 | COc1ccc(-c2csc(NCCc3nc4cc(Cl)c(Cl)cc4n3CCCO)n2)cc1 | active: -58.4%
29 | Cc1cc(C(=O)CSc2nc(N)cc(N)n2)c(C)n1-c1cccc(F)c1 | inconclusive: -35.3%
30 | CN(CC(=O)Nc1ccc(Cl)c(C(F)(F)F)c1)C(=O)CCNC(=O)c1ccco1 | inactive: 6.09%
31 | Cc1ccc(-n2nnc3c(SCC(=O)NCC4CCCO4)ncnc32)cc1 (stereo not drawn) | active: -55.6%
32 | COc1ccccc1[C@@]1(C)ON(c2ccccc2C(F)(F)F)C1=O | active: -94.3%
33 | Cc1ccccc1N(CC(=O)NC1CCCC1)C(=O)c1oc(C(C)(C)C)cc1C | inconclusive: -39.3%
34 | Cc1cccc(Oc2ccc(NC(=O)C3=CC=CN4CCS(=O)(=O)N=C34)cc2)c1 | inactive: 16.2%
35 | Nc1ccn(C2OC(CCl)C(O)C2O)c(=O)n1 (stereo not drawn) | inactive: 20.6%
36 | Cc1ccc2nc(Cl)c(/C=N/Nc3nc(C)cc(C)n3)c(=O)n2c1 | active: -97.2%
37 | CCCn1c(=O)c(Br)cn(-c2ccccc2C)c1=O | inconclusive: -40.3%
38 | O=C1CCC2c3[nH]c4ccccc4c3CCN12 (stereo not drawn) | inconclusive: -30.9%
39 | CC(=O)Nc1ccc(OCC(O)Cn2c3ccccc3c3ccccc32)c(C)c1 (stereo not drawn) | active: -59.9%
40 | CC(C(=O)Nc1ccc(F)cc1Cl)N(C)CCOc1ccccc1 (stereo not drawn) | inconclusive: -45.5%
41 | COc1ccc(CNC(=O)C2CCN(C(=O)c3sccc3-n3cccc3)CC2)cc1 | inconclusive: -33.7%
42 | O=C(O)C1CC=CCC1C(=O)N1CC=C(c2ccccc2)CC1 (stereo not drawn) | inactive: 28.4%

Row | Structure (SMILES) | activity change
43 | O=C(Nc1cccc2ncccc12)c1cc([N+](=O)[O-])ccc1Cl | active: -88.1%
44 | CCCCCCCc1ccc(-c2ccc(O)cc2)nc1 | inconclusive: -38.7%
45 | CC(=O)Nc1ccc(Nc2ccc3c4c(cc(=O)n3C)-c3ccccc3C(=O)c24)cc1 | inconclusive: -42.6%
46 | Cc1ccc(S(=O)(=O)N(C)C[C@@H]2OCCCC[C@@H](C)Oc3ccc(NS(=O)(=O)c4c(C)noc4C)cc3C(=O)N([C@H](C)CO)C[C@@H]2C)cc1 | inactive: -21.2%
47 | O=[N+]([O-])c1ccc(/C=C/c2ccncc2)cc1 | inconclusive: -44%
48 | C[C@H](CO)N1C[C@H](C)[C@@H](CN(C)Cc2ccccc2)Oc2c(NC(=O)Cc3ccccc3)cccc2C1=O | inactive: -8.77%
49 | COc1cc2c(cc1OC)-c1cc(NC3CCCCCCC3)nc(=O)n1CC2 | inconclusive: -49.1%
50 | COc1ccc(/C=C2\SC(=O)N(CCC(=O)NC3CCS(=O)(=O)C3)C2=O)cc1 (stereo not drawn) | inconclusive: -38.3%
51 | O=C1c2cccc3cccc(c23)C(=O)N1CCN1CCN(C(=S)Nc2ccccc2)CC1 | inconclusive: -46.5%
52 | CCC(/C=C1\Sc2ccc(OC)cc2N1CC)=C\c1sc2ccc(OC)cc2[n+]1CCCS(=O)(=O)[O-] | inconclusive: -32.8%
53 | Cc1cc(C(=O)N2CCCC(C(=O)c3ccc(Oc4ccccc4)cc3)C2)n[nH]1 (stereo not drawn) | inconclusive: -32%
54 | O=C(Cc1sc(Nc2ccccc2)nc1-c1ccccc1)NCc1ccccc1 | active: -68.4%
55 | COc1ccc(N2Cc3cccc(C(=O)O)c3C2=O)cc1 | inactive: 4.2%
56 | CC1CC(C)CN(C(=O)C2CCN(S(=O)(=O)c3ccc4c(c3)CC(C)N4C(=O)C3CC3)CC2)C1 (stereo not drawn) | inconclusive: -41.1%
57 | O=C(c1ccc2c(c1)OCO2)N1CCC(Cc2ccccc2)CC1 | inconclusive: -49.3%
58 | COc1cc([N+](=O)[O-])cc([N+](=O)[O-])c1NC(=O)N1CCOCC1 | active: -92.7%
59 | O=C(CC(Cc1ccccc1)C(=O)O)Nc1ccc(Cl)c(Cl)c1 (stereo not drawn) | inactive: -12.2%
60 | CCN1CCc2c(OCc3ccccc3)cccc2C1=O | inconclusive: -44.9%
61 | COc1ccc(/C=C/C(=O)c2c(O)ccc3c(C)cc(=O)oc23)cc1 | inconclusive: -46.3%
62 | COc1ccc(NCc2nn(CC(=O)c3ccc(Br)cc3)c3[n+]2CCCCC3)cc1 | inconclusive: -38%
63 | COc1ccccc1N(CC(=O)NC1CC2CCC1C2)S(=O)(=O)c1ccc(C)cc1 (stereo not drawn) | inconclusive: -41%

Row | Structure (SMILES) | activity change
64 | CCN(CC)S(=O)(=O)c1ccc(C(=O)NCC2(N3CCOCC3)CCCCC2)cc1 | inactive: 0%
65 | CN(C)CCN(CC1CCCN(Cc2ccccc2F)C1)C(=O)c1ccc(F)cc1 (stereo not drawn) | inconclusive: -37.9%
66 | O=C(NCC(c1ccco1)N1CCN(c2ccc(F)cc2)CC1)OCc1ccccc1 (stereo not drawn) | inconclusive: -32.7%
67 | CCOC(=O)c1cc(-c2ccc(/C=C3/C(=O)NC(=O)C(C#N)=C3C)o2)ccc1Cl | inconclusive: -35.2%
68 | CC(C)OCCCn1c(=O)c2ccccc2n2c(CCC(=O)N3CCN(c4ccccn4)CC3)nnc12 | inconclusive: -43.3%
69 | CCOc1ccc(C(=O)COC(=O)Cn2cnc3c2c(=O)n(C)c(=O)n3C)cc1 | inactive: -0.692%
70 | COc1cc(CNCCN2CCOCC2)ccc1OCc1ccc(Cl)cc1 | inconclusive: -46.5%
71 | CCCCC(=O)NC(=S)Nc1cc(C(=O)O)ccc1OC | inactive: 0%
72 | O=C(CN1CCCC1)Nc1ccc(OCc2ccccc2)cc1 | inconclusive: -44.9%
73 | Cc1nc(C)c(C(=O)Nc2ccc(Oc3ccccc3)cc2)o1 | inactive: 31.6%
74 | CN1C[C@@H]2C[C@@H](C3=Cc4cc(Cl)ccc4OC3)N3CCC[C@@]23C1=O | inconclusive: -32%
75 | O=C(COC(=O)/C=C/c1cccc(Cl)c1)Nc1cccc(S(=O)(=O)NC2=NCCC2)c1 | inconclusive: -37.5%
76 | CCOc1ccc2c(c1)c1nnc(SCC(=O)N3CCC(C)CC3)nc1n2C | inconclusive: -34.8%
77 | CCN(CC)c1nc(C)nc2c1cnn2CCc1ccccc1 | inconclusive: -48.3%
78 | Cc1ccc(N=c2oc3cc(O)ccc3cc2C(N)=O)cc1 | inconclusive: -34.7%
79 | COC(=O)CC1C(=O)NCCN1C(=O)CSc1nnnn1-c1ccc(Cl)cc1 (stereo not drawn) | inconclusive: -34.1%
80 | Cc1ccc(S(=O)(=O)NCc2ccc(C(=O)N3CCN(c4ccccc4)CC3)cc2)cc1 | inactive: -22.6%
81 | COc1ccccc1Oc1cc(C#N)c(C#N)cc1-n1nnc2ccccc21 | inconclusive: -36.1%
82 | N/C(=N\OC(=O)N1CCOCC1)c1ccc(Br)cc1 | inactive: -20.7%
83 | c1ccc(CCc2nn3c(C4COc5ccccc5O4)nnc3s2)cc1 (stereo not drawn) | inconclusive: -40.7%
